Assay results as given in the RNAGym collection of RNA variant scans (doi:10.7554/elife.90254).
Read counts are not given, so values of variants with three or more changes are uncertain.

B1: LINE1-full (parent)
chain: UACGUAGGUGGUUUUCCCCUGAUAGUGCUAAGGGGGCCUGGAAGUUUGGACUGGGCAGAGCUCAACACAGCGUGGCAAAGUGGCUGUGGCUAGACUGCCUCUCUGGAUUCCUCGUCACUCAGCAGGGCAUCUCUGAGAGAAAUGCC

Variants of: B1
Assay: self-cleavage, relative activity (ratio to wild type); higher = more cleavage; in vitro, sequencing; the parent is a self-cleaving ribozyme

Variant	self-cleavage
U1C U12C U85C A138G	0.24
U1G U14C U29C A136G	0.6
A2G U52C A77G	0
A2G U9C U23C U85A	0.31
U1C U26A A117G A138G	1.41
U1C U13C A42C A78G	0.66
A2G U46A A69G	0.25
C3A U39C A65G A140G	0
A2G U87A A107G	0.16
U1C U87C C103U A124U	0.05
A2G A24U A59G	0.41
A2G U13G A22U G55A	0.26
A2G A77G C146U	1.36
U1C C3A A30G	0.55
A2G G35U U39A A121G	0.68
U1C U87C G127C	0.74
C3A U73C U96C G114A	0.08
U1C G53A U87A	0.03
A2G U9C U91C	0
A2U A67G A117G	0
U1C U62C U115G A121U A140G	0.13
U1C U12G A65U U85A G125U	0.08
U1C C18A U20C	0
U1C G32U A94G	0.26

Variant	self-cleavage
U1G G60A C76U	0.12
A2G A42G A77U A79G	1.07
U1C U12G U52A	0.7
U1C C56U G58U U81C	0.02
A2G A65G U87A	0.13
A2G G40A U46C U52A U112C A138G	0.35
U1C G11A U46C	0.75
U1C G53A G139U	1.3
A2G U102A U104A U112A	1.25
A2G U12A A50U A57C G72A	0.28
U1G A57G U87A U130A	0.28
A2G U39A C63U A67U A141G	0.11
U1C U14A U119C	1.17
A2G U96C A117U	0.25
A2G U23A U62C	0.61
A2G A50U A77U C113A U130C	1.05
A2G U104C U134G	0.57
U1C U91C U132A	0.68
U1C U5C A6G	0.49
A2C A24U A77U	0.9
A2G U52A A57U	0.25
C3A U9A A42U U45C U62C	0.24
A2G C16U G33A U46C G54C A59G A141G	0.17
A2G U5A U85A A138G	0.38

Variant	self-cleavage
U1C U23C G127A	2.24
A2G U39C A64U A124G	0.23
A2G U12C G53U U108C A140G	2
U1C U14C U62C G122A A129G	0.12
U1C G7A A24G	1.84
U1C G11A U52C	0.67
A2U A59U A140G	0.48
U1C U13C A50G U143C	0.49
U1C U15A A24U U134C A136U	0.45
A2G A42U C56G U62C A67G C113U	0.55
U1C U12C A59G A92U C113A	0
A2C U20A G44A U73A	1.01
A2G U62A A107G C120U	0
A2G A22G U104C U112C	1.53
A2G A59U A140G	0.53
C3A A59G G127U A140U	0.12
A2G C90U A117G A136G	0.05
U1C U119C U132C A138G U143A	0.45
A2G G48A U85C A141G	0.47
A2G U12A A69G	0.64
U1C G34A U47C	0.76
A2U U29C A42G U52C A141G C146A	2.63
A2G U73G A94G	0
U1C A67G C120U	0.44

Variant	self-cleavage
U1C U115A U143A	0.94
A2G U9C A121U A142U	0.84
A2G C37A U73A U108G	1.31
A2G U5C U45C	0.33
A2U U13C A78G	1.69
U1C G8A U73A A129U A140G	1.02
U1C A107G A124U	0.64
U1C U62A U73A A142G	0.05
A2C U52A A92G A129G A140C	0
A2G U23C C51U A67U G86A U132C	0.15
U1C U52G A65G	0.1
A2G U62A U143C	0
A2G G4A U12G U23C A77G	0.84
A2G U47C A64G G72A	0.4
A2G U47C G82A U96G	0.08
A2C U23A A136G	1.7
A2G A42U A121U	0.61
C3A U15C U112C A124G A142G	0
C3A U14C G34U A107U	1.25
A2G U15C C17A U73A A142G	0.6
U1C G72A U73C U87G A107G	0.05
A2U G44A U119C	1.53
A2G U45C U46A U132A	1.08
U1C U15C U47C C63U U102C C113U	0.18

Variant	self-cleavage
C3A U13C U143C	0.66
U1C U39C U134A	0.64
U1C U100C U104C	0
A2C U5C A64U U108A U115C	0.87
U1C G40U A59G U102C U119C	0.12
A2G U9C U20A U115C U132C	1.02
A2G A77U U100C G122C A129G G135A	1.57
A2U U5A U13C A42U U73A A140G	1.31
A2G A129G A138U	0.37
A2G A6G U46C A78G U119C	0.63
A2G C17G A67U A77G	0.18
A2U A77G U112A	1.79
U1C U132C U134G	1.97
A2G U12G A50G C128U A141G U143C	0.94
A2G U39A U45C	2.23
A2G U26G G34A U39A U45C A94U U102A	0.23
A2G A30U G55A A124G U132C	0.15
U1C U47A U73C U104C A136G	1.39
U1C U12A G40A A79G	0.4
A2G C16U U52C	0
A2G U9A A69U C111U	0.01
A2G A30U U87C G122U	0.24
U1C U13C G35A U100A U102C	0.63
A2G U14C G53A A69G C76A	0.28

Variant	self-cleavage
U1C U13C A136U	0.9
U1C U13C A136G	0.65
A2G A138G A142G	0.92
U1C U87C A141U	0.14
U1C U39A A94U	0.12
U1C C56U U108C	0.15
A2G U14A U62C	0.17
A2G A24G A30U	0.54
C3A A57G U100A	0.19
A2U G40A A69G	0.2
A2G U5C U12G U47A A67G	0.35
A2G A69G A94U A136U	0.59
U1C U23A G54A U96A U109C C145A	0.04
U1C U45A A136G	1.16
U1C U14C A78U A138G	1.16
A2G A92G U102C A136G	0
A2G U26C U115C C116A A136U	1.29
A2G U12A U23C U91A	0.16
U1C C120U A142G	0.98
A2G A77G A117G A129U	1.15
A2U A22U A124G	0.46
U1C U104C A142G U143C	2.04
A2C U14C A59G A136U	0
A2G G21U U46C U96C A138G	0

Variant	self-cleavage
A2G U14C G60U	0.12
A2G A64G U81C U143A	0.37
A2G U39C G97A	0.2
A2G U108C U132A A136G	1.87
U1C A78U A107U	1.68
A2G C66U A67G	0
C3A U23C U130A	0.93
C3U A22U A24U G106U	0.89
U1C U46C U62A A79G G106C	0.06
A2G U20C A22G G27A A69G U87C G106A	1.7
A2G C28G U62A	0.15
U1G U112C A136G	0.99
U1C U39A A57G	0.36
U1C U46A A142G	1.33
C3A G34U U62C	0.03
A2C A59U U132A	0.74
A2G U12C U15C U62A	0.17
A2U G53C U62C G70C	0.06
A2U A57G A69G A78G	0
A2G U96C U102C U119A A121U	0
A2G C38A A64C C71U U81C U109C	0.06
C3A A77G C110U A129C	2.02
A2U G33A A64U U108C A142G	0.8
